Publication PMC6919601, “Identification of Plasmodium dipeptidyl aminopeptidase allosteric inhibitors by high throughput screening” (PLoS ONE, 2019)
Out of some 110,000 compounds screened, about 230 (0.21%) showed an effect of 50% or more. The list shows a part of the results.

The molecules below were run against DPAP1 (Plasmodium falciparum, UniProt Q8IIJ9) (assay: primary screen, percent inhibition; read by cleavage of a fluorogenic dipeptide substrate; higher = more effect of the substance).
Set-up: species or system P. falciparum D10 trophozoite lysates; single well
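Also: 30 min substrate incubation versus DMSO and 10 µM JCP410 controls.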

Sequence of DPAP1 (Q8IIJ9 whole entry, looked up): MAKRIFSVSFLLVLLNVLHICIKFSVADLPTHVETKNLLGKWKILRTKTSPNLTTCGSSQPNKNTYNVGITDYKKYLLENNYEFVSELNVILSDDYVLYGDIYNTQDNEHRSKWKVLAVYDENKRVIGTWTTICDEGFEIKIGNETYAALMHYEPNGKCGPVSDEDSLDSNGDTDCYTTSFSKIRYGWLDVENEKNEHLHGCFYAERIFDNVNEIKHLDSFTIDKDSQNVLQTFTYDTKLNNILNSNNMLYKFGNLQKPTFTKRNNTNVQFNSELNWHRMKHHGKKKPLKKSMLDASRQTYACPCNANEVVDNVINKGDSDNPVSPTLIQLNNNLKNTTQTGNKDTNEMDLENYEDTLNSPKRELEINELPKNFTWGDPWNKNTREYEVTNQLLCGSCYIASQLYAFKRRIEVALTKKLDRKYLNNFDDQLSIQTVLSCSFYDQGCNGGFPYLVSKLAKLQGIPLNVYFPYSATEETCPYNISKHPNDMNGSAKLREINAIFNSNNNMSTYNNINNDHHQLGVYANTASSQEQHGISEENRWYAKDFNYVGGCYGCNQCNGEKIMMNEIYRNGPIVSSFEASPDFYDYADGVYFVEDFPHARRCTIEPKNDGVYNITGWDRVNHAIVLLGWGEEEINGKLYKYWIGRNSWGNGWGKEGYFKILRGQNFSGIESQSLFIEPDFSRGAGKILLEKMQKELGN

SMILES	% Inhibition @ 10 uM [%]
COc1ccccc1CNC(=O)C(NS(=O)(=O)c1cccc2nsnc12)C(C)C (stereo not drawn)	4.54
O=S1(=O)N(Cc2ccc(Cl)cc2)CCCN1Cc1cccc(C(F)(F)F)c1	-5.32
COc1ccc(C2C(C(=O)c3ccc(C)cc3)=C(O)C(=O)N2c2cccc(C(=O)O)c2)cc1OC (stereo not drawn)	-8.78
COc1ccc(COC(=O)C2=C(C)NC(=O)NC2c2ccc(O)cc2)cc1 (stereo not drawn)	16.9
N#Cc1c(-c2ccccc2)cc(-c2ccccc2)c(C#N)c1N	0.716
COc1cccc(N2C(=O)CC(N3CCN(c4ccccc4Cl)CC3)C2=O)c1 (stereo not drawn)	-1.79
COc1ccccc1CNC(=O)COc1ccc2c(c1)C(=O)CC1(CCN(C(C)=O)CC1)O2	-1.28
COc1ccccc1CNC(=O)c1oc2ccc3c(c2c1C)C(=O)CC1(CCCC1)O3	5.42
CCCNC(=O)c1oc2ccc3c(c2c1C)C(=O)CC(C)(CC)O3 (stereo not drawn)	-2.17
COc1ccc(C)cc1NC(=O)CN(c1ccc(Cl)c(Cl)c1)S(C)(=O)=O	6.15
COc1cccc(/C=C2\N=C(c3ccc(OC)cc3Cl)OC2=O)c1	-3.08
Cc1nc(O)nc(O)c1S(=O)(=O)N1CCC(C(=O)NC(C)CCc2ccccc2)CC1 (stereo not drawn)	-5.88
CCN1OCN(c2nc(N(C)C)nc(N(C)C)n2)C1=N	-2.49
Cc1ccc2c(c1)c1c(n2C)C(NC(N)=O)CCC1 (stereo not drawn)	-2.99
COCCCNc1nc2c(c(=O)[nH]c(=O)n2C)n1CC(O)COc1ccc(OC)cc1 (stereo not drawn)	0.275
CCSc1nc2c(c(=O)n(Cc3ccccc3Cl)c(=O)n2C)n1C	-3.28
CCOc1ccc(NC(=O)c2nn(C)cc2Br)cc1	-3.45
CN1CCCN(Cc2ccc(Cl)c(Cl)c2)CC1	-3.95
COc1ccc(-c2nc(Cn3c(=O)cc(-c4ccccc4)c4c(C)nn(C)c43)c(C)o2)cc1	7.28
Cc1c(Cc2ccccc2)sc(NC(=O)Nc2ccccc2)c1C(N)=O	-0.055
CC(C)CCNC(=O)c1ccc2c(SCC(=O)O)c3c(nc2c1)CCCC3	3.33
Cc1ccc(CNC(=O)c2cn(C3CCCCC3)c(=O)c3c2c2ccccc2n3C)o1	0.163
CCN(CC)c1ccc(-c2nocc2C#N)cc1	5.92
O=C(NCCCSC1CCCCC1)c1ccc(CS(=O)c2ccccc2)o1 (stereo not drawn)	-6.89
CC(C)C(=O)Nc1nnc(S(=O)(=O)N(C)Cc2ccccc2)s1	4.73

SMILES	% Inhibition @ 10 uM [%]
CC1(C(=O)O)NCCc2c1[nH]c1ccccc21 (stereo not drawn)	-3.41
Cc1ccc(/C(O)=C/c2nc3ccccc3nc2O)c(C)c1	2.51
O=C(O)c1ccc(CN2CCN(c3cccc(C(F)(F)F)c3)CC2)cc1	-1.07
CCc1nnc(NC(=O)C(=O)c2cc(C)n(CCOC)c2C)s1	3.92
CC12CC(NC(=S)N1)c1cc(F)ccc1O2 (stereo not drawn)	0.351
COc1ccc2cc3cc(C(=O)N4CCN(Cc5ccccc5)CC4)sc3nc2c1	4.61
Cc1c(CCC(=O)NCc2ccccc2Cl)c(=O)oc2cc(O)ccc12	0.895
CCOc1ccc(N(CC(=O)NC2CC2)S(=O)(=O)c2ccc(Cl)cc2)cc1	-5.13
Cc1ccc2n(n1)c(O)c(Cc1ccccc1)c(=O)[n+]2-c1ccccc1	0.956
Cn1ccc(-c2cc(-c3ccccc3)nc(-c3ccccc3)c2)c1	-5.68
O=C(O)c1ccc(CN2C(=O)c3cccnc3C2=O)cc1	2.84
CCOCCCNC(=O)C1CCCCN1S(=O)(=O)c1ccc(C(C)(C)C)cc1 (stereo not drawn)	-6.5
CCCN1CCC(NCC(C)c2ccccc2)CC1 (stereo not drawn)	-2.02
C/C(Cl)=C/Cc1c(C)nc2ccc(C)cc2c1O	1
CN(C)/C=C/c1c([N+](=O)[O-])c2ccc(O)cc2n1-c1ccccc1	-6.83
CCOc1ccccc1-n1c(SCC(=O)NCc2ccco2)nc2nnc(C)c-2c1N	-3.93
CCN(CC)CCN(C)C/C=C/c1ccc(N(C)C)cc1	-2.95
CCN(CCN(C)C)C(=O)Cn1nc(Cc2ccncc2)c2ccccc2c1=O	5.09
CCOC(=O)C1=CN(Cc2ccc(Cl)cc2)C=C(C(=O)OCC)C1c1cccc(OC)c1OC	-1.48
CCC(=O)Nc1ccc2c(c1)oc1ccccc12	-2.94
COc1ccc(Br)cc1CN1CCN(Cc2ccncc2)CC1	0.611
Cc1cccc(NC(=O)C23CC4CC(C2)CC(n2cnc(Br)n2)(C4)C3)c1C	3.56
COc1ccc(NC(=O)C2=C(C)NC(=O)NC2c2ccccc2Br)cc1 (stereo not drawn)	-5.9
O=S(=O)(CCc1nc2ccccc2s1)c1ccc(Cl)cc1	1.64
CN(Cc1ccccc1)C(=O)CN1C(=O)c2ccccc2S1(=O)=O	-1.65

SMILES	% Inhibition @ 10 uM [%]
COc1ncc(-c2ccc(C(=O)N[C@@H](CC(C)C)C(=O)NCC#N)cc2)c(OC)n1	3.19
CCOC(=O)C1=C(C)N=c2s/c(=C\c3cn(C)c4ccccc34)c(=O)n2C1c1ccccc1 (stereo not drawn)	1.39
CCc1cccc(NC(=O)C2CCCCC2C(=O)O)c1 (stereo not drawn)	5.14
COc1ccc2c3ncn(CCCN4CCN(C5CCCCC5)CC4)c(O)c-3nc2c1	4.8
N#CC1=C(N)SC(N)=C(C#N)C1c1ccc(Cl)cc1Cl	5.08
COc1ccc(CNc2ncnc3c2cnn3C)cc1	-0.95
Cc1ccc(CNC(=O)CCC(=O)n2nc(C)c3ccccc32)cc1	3.84
CC(NC(=O)c1ccccc1)c1nc2ccccc2n1Cc1ccccc1 (stereo not drawn)	-0.551
COc1ccc(-c2csc(N3CCN(c4nc(-c5ccccc5)cs4)CC3)n2)cc1	-0.834
C=C(C)Cn1c(CCNC(=O)COc2ccccc2)nc2ccccc21	3.49
COc1ccc(N/C(=N\C(C)=O)Nc2nc(C)cc(C)n2)cc1	3.79
CC1CCN(C(=O)CSc2nnc(CNC(=O)c3ccccc3F)o2)CC1	-7.21
CCc1ncc(C(O)(c2ccccc2)c2ccc(C)cc2)n1C (stereo not drawn)	-9.94
Cc1cc2nc(SCC(=O)Nc3ccc4c(c3)OCO4)[nH]c2cc1C	15.7
O=C(c1noc2c1CCCCC2)N1CCN(c2ccccn2)CC1	-9.57
O=[N+]([O-])c1ccc(Cl)cc1CN1CCc2ccccc2C1	1.55
Cc1noc(NS(=O)(=O)c2ccc(NC(=O)C(C)Oc3ccc(C(C)(C)C)cc3)cc2)c1C (stereo not drawn)	1.65
COc1cccc(OC)c1C(=O)Nc1ccncc1	0.889
CCc1nnc2sc(-c3ccccc3Cl)nn12	0.635
CC(=O)c1ccc(S(=O)(=O)N2CCCCC2)cc1	-2.42
COc1cc(C(=O)NCCC(=O)NCc2ccc3c(c2)OCO3)cc(OC)c1OC	-2.26
O=C(NCc1ccc(F)cc1)c1noc2c1CCc1ccccc1-2	-9.28
Cn1c(=O)c2c(nc(Cl)n2CC(=O)NC(C)(C)C)n(C)c1=O	0.611
CCOc1ccccc1-n1c(C)cc(/C=C2/C(=N)N3C=CSC3=NC2=O)c1C	2.25
Cc1ccc[n+](CC(=O)N2CCCCC2)c1C	3.72

SMILES	% Inhibition @ 10 uM [%]
CCOC(=O)c1c(NC(=O)c2nc(SCC)ncc2Cl)sc(C)c1C	-1.11
O=C(CC(=O)c1ccc([N+](=O)[O-])cc1)Nc1ccccc1Cl	-2.66
CC(=O)c1ccc(N2CCN(Cc3ccc(C)cc3C)CC2)cc1	-5.11
N#C/C(=C\c1ccc([N+](=O)[O-])cc1)c1nc(-c2ccc(Br)cc2)cs1	-2.51
CCOc1ccc(NC(=O)c2ccc(S(=O)(=O)N3CCCCC3C)cc2)cc1 (stereo not drawn)	-1.59
CCOC(=O)/C(C#N)=C/c1c(Oc2ccc(Cl)c(C)c2)nc2c(C)cccn2c1=O	5.21
O=C1CC(c2ccc(C(F)(F)F)cc2)C2=C(CC(c3ccc(F)cc3)CC2=O)N1 (stereo not drawn)	1.31
Cc1nc2ncnn2c(C)c1CCC(=O)NC(C)CCc1ccco1 (stereo not drawn)	-8.02
C=CCn1c(SCC(=O)Nc2ccccc2)nc2scc(-c3ccc(C)o3)c2c1=O	-9.58
Cc1ccc(C2CC(=O)C(/C=N/CCN3CCN(C(=O)c4ccccc4)CC3)=C(O)C2)cc1 (stereo not drawn)	0.121
C=CCc1cc(/C=C2/NC(=O)NC2=O)cc(OCC)c1OCc1ccc(Cl)c(Cl)c1	-3.06
CCc1ccccc1NC(=O)CSC1=C(C#N)C(c2ccccc2)CC(=O)N1 (stereo not drawn)	-1.06
O=C(Nc1ccc(Nc2ccccc2)cc1)C1CC1c1ccccc1 (stereo not drawn)	-0.807
CC(C)OC(=O)c1cccnc1SCc1cc(=O)n2ccccc2n1	0.387
CCC(CO)Nc1ncnc2c1cnn2C (stereo not drawn)	2.4
COC(=O)Nc1nc2sc3c(c2s1)CCCC3	3.01
O=C(c1c(Cl)cccc1Cl)N1CCN(Cc2ccccc2)CC1	1.67
O=C(OCC1c2ccccc2-c2ccccc21)N1CCOCC1	-2.18
Cc1nn(-c2ccccc2)c2nc(C3CC3)cc(C(=O)O)c12	4.9
C1CC(NC2CC2)CCN1	6.56
COc1ccc(/C=C/C2=CCN(C)CC2)cc1	-6.06
COc1ccccc1NC(=O)c1ccc(N)cc1C(=O)O	5.17
COc1ccc(N2CCN(C(=O)c3ccc(N(C)S(=O)(=O)c4ccccc4)cc3)CC2)cc1	-11.1
Cc1oc(-c2cccs2)nc1CSCC(=O)NCc1ccccc1Cl	-4.71
